We go through 14 molecules from paper PMC6322271.

Protein sequences, listed by entry. Tags and fused reporters are not part of them.
UniProt P63279: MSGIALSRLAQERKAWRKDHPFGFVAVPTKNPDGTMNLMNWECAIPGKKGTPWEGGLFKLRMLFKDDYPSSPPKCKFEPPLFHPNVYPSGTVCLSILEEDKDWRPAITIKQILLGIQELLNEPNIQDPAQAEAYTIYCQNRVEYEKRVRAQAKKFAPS
UniProt Q13547: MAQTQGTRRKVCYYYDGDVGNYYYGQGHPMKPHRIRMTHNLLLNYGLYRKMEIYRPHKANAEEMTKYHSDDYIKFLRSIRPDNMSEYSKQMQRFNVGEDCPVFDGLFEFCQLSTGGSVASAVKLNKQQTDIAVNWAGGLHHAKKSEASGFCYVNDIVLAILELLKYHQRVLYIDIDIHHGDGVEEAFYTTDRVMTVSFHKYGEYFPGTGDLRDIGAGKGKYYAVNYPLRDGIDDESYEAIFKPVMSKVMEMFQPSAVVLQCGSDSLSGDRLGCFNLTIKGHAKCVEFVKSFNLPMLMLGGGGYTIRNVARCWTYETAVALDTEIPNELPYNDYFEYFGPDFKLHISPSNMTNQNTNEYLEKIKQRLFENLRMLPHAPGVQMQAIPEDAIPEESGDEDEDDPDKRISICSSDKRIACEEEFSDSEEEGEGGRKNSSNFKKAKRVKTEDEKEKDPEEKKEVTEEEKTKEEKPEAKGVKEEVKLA
UniProt Q92769: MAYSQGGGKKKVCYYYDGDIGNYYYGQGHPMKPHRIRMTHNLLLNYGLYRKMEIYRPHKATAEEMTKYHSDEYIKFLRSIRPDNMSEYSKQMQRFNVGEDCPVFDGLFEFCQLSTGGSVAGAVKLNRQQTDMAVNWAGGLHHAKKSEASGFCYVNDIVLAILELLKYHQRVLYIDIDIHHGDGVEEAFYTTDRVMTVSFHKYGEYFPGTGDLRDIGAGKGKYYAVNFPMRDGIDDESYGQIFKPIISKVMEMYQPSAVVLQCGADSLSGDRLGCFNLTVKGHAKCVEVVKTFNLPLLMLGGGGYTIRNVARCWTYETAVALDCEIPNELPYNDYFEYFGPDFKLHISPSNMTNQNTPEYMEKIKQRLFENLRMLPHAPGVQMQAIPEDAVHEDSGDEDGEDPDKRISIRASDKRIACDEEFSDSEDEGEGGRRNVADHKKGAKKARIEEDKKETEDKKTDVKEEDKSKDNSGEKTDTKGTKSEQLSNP

Assay [1] addresses T1, 3xFlag–Slug 1–268 (human) (UniProt O43623).
T1 sequence: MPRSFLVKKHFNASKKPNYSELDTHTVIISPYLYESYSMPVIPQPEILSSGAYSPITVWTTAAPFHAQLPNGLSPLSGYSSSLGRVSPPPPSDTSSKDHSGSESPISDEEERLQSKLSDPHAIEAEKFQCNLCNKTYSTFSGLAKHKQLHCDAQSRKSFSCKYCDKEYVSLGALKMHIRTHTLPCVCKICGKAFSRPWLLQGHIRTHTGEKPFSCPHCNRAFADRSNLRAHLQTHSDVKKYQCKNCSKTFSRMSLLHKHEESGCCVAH
The assay can be described thus: co-IP; cytosolic and chromatin-bound fractions of HEK293T cells co-expressing 3xFlag-labelled Slug and HA–Ubc9; immunoprecipitated with anti-Flag antibodies.

The target of assay [2] is T2, Slug (endogenous, CL1–5 cells) (human (endogenous in CL1–5)) (UniProt O43623).
T2 sequence: T1 sequence
The assay can be described thus: co-IP; endogenous immunoprecipitation; CL1–5 cell lysate treated with 1% formaldehyde; cross-linked Slug complexes immunoblotted. (In western blotting, separated proteins are transferred to a membrane and probed.)

Assay [3] addresses T3, wild-type Slug (Fig. 4e, HEK293T) (human) (UniProt O43623).
T3 sequence: T1 sequence
The assay can be described thus: co-IP; lysates of HEK293T cells cotransfected with the indicated plasmids (with or without Ubc9 and SUMO-1); immunoprecipitation with an anti-HA antibody.

Assay [4] concerns the target T4, Slug5M (Fig. 4e, HEK293T) (human) (UniProt O43623).
T4 sequence: T1 sequence with K239R, K240R, K244R, K248R, K258R
The assay is described as above.

In assay [5] the target is T5, wild-type Slug (Slug-overexpressing HEK293 cells) (human) (UniProt O43623).
T5 sequence: T1 sequence
The experiment in a line: co-IP; nuclear fractions (hypotonic buffer) of Slug- and Slug5M-overexpressing HEK293 cells; immunoprecipitation with an anti-Slug antibody, immunoblotting.

For assay [6], the target named is T6, Slug5M (Slug5M-overexpressing HEK293 cells) (human) (UniProt O43623).
T6 sequence: T1 sequence with K239R, K240R, K244R, K248R, K258R
The assay is described as above.

Assay [7] has as its target T7, Slug (transfected in HEK293T, Fig. 1b and c) (human) (UniProt O43623).
T7 sequence: T1 sequence
The experiment in a line: co-IP; exogenous immunoprecipitation from lysates of HEK293T cells transfected with the indicated plasmids (Fig. 1b, c); RIPA lysis buffer; also under normoxia or hypoxia (1% O2, 4 h; Fig. S10a, anti-Flag).

Another assay deals with GST–Ubc9 (UniProt P63279). The assay can be described thus: pull-down; GST–Ubc9 from bacteria coupled to beads, incubated with in vitro-translated Slug fragments; washed with buffer D (20 mM HEPES pH 8.0, 20% glycerol, 0.2 mM EDTA, 100 mM KCl, 0.5 mM PMSF, 0.5 mM DTT); only the target purified.
The target in assay [8] is T1, 3xFlag–Slug 1–268 (human). The assay can be described thus: co-IP; HEK293T cells co-transfected; immunoprecipitation with anti-Flag antibodies, immunoblotting; RIPA lysis buffer; in Fig. 5f and S10b cells under normoxia or hypoxia (1% O2, 4 h).
The target in assay [9] is T8, 3xFlag–Slug 130–268 (human) (UniProt O43623).
T8 sequence: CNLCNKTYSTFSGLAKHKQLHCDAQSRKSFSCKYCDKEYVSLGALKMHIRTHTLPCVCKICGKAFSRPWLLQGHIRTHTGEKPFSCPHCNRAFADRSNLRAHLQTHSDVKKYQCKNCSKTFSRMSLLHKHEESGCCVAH
The assay is described as above.

The target of assay [10] is T9, 3xFlag–Slug 67–268 (human) (UniProt O43623).
T9 sequence: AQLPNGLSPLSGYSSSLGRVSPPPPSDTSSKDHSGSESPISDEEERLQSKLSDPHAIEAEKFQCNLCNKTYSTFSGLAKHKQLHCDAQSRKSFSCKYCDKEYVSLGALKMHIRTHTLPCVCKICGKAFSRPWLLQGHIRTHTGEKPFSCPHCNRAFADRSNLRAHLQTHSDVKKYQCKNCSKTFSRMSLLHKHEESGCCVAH
The description is as above.

The target of assay [11] is T10, 3xFlag–Slug 33–268 (human) (UniProt O43623).
T10 sequence: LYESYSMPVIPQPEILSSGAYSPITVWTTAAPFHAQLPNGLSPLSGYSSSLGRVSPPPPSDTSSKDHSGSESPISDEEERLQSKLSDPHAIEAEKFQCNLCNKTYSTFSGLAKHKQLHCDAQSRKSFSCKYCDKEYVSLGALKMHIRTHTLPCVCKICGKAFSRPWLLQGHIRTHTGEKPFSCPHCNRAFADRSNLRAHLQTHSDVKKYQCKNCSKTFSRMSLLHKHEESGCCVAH
Described as above.

The target in assay [12] is T11, 3xFlag–Slug 1–129 (human) (UniProt O43623).
T11 sequence: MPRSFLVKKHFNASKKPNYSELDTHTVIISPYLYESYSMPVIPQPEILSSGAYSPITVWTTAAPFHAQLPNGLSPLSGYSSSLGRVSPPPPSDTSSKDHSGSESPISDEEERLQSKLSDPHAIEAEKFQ
The description is as above.

For a further assay, the target named is T12, GST–Slug (human) (UniProt O43623).
T12 sequence: T1 sequence
The assay can be described thus: pull-down; GST–Slug or GST from bacteria on beads, incubated with in vitro-translated HA-tagged PIAS proteins; anti-HA immunoblot; for PIASy also in the presence or absence of Ubc9 (Fig. 3d); only the target purified.

Positions count from the first letter of the chain named. No constants are given. Whether binding was seen depends on the method and setting. In cells and extracts the contact can be indirect. Some results given as binding are weak or reduced against the parent protein; the word gives no strength. For part of these data: Sequences can lack the tags named with a protein.

In the case of “HA–Ubc9 (HEK293T) (from UniProt P63279 1-158)”, the binding result in [1] is recorded as “binds”.
As for “Ubc9 (endogenous, CL1–5 cells) (from UniProt P63279 1-158)”, the binding entry in assay [2] is given as “binds”.
Turning to “HDAC1 (Fig. 4e, HEK293T) (from UniProt Q13547 1-482)”, the binding entry in [3] and in assay [4] was “binds” in each case.
With “HDAC1 (endogenous, HEK293) (from UniProt Q13547 1-482)”, the binding result in [5] and in assay [6] was “binds” each time.
Consider “Ubc9 (transfected in HEK293T, Fig. 1b and c) (from UniProt P63279 1-158)”, for which, in [7], the binding result was “binds”.
Regarding “HDAC2 (endogenous, HEK293) (from UniProt Q92769 1-488)”, the binding entry in [5] and in assay [6] was “binds” throughout.

B1: Slug 130–212, in vitro translated (domain or fragment, UniProt O43623 130-212)
chain: CNLCNKTYSTFSGLAKHKQLHCDAQSRKSFSCKYCDKEYVSLGALKMHIRTHTLPCVCKICGKAFSRPWLLQGHIRTHTGEKP
Turning to B1, the binding entry with GST–Ubc9 is “binds”.

B2: Slug 213–268, in vitro translated (domain or fragment, UniProt O43623 213-268)
chain: FSCPHCNRAFADRSNLRAHLQTHSDVKKYQCKNCSKTFSRMSLLHKHEESGCCVAH
Regarding B2, the binding result with GST–Ubc9 was “no binding”.

B3: Slug 1–129, in vitro translated (domain or fragment, UniProt O43623 1-129)
chain: T11 sequence
On to B3, for which the binding result with GST–Ubc9 is recorded as “no binding”.

B4: Slug 130–268, in vitro translated (domain or fragment, UniProt O43623 130-268)
chain: T8 sequence
Take B4: the binding entry with GST–Ubc9 is recorded as “binds”.

B5: HA–PIASy (HEK293T) (protein, UniProt Q8N2W9 1-510)
chain: MAAELVEAKNMVMSFRVSDLQMLLGFVGRSKSGLKHELVTRALQLVQFDCSPELFKKIKELYETRYAKKNSEPAPQPHRPLDPLTMHSTYDRAGAVPRTPLAGPNIDYPVLYGKYLNGLGRLPAKTLKPEVRLVKLPFFNMLDELLKPTELVPQNNEKLQESPCIFALTPRQVELIRNSRELQPGVKAVQVVLRICYSDTSCPQEDQYPPNIAVKVNHSYCSVPGYYPSNKPGVEPKRPCRPINLTHLMYLSSATNRITVTWGNYGKSYSVALYLVRQLTSSELLQRLKTIGVKHPELCKALVKEKLRLDPDSEIATTGVRVSLICPLVKMRLSVPCRAETCAHLQCFDAVFYLQMNEKKPTWMCPVCDKPAPYDQLIIDGLLSKILSECEDADEIEYLVDGSWCPIRAEKERSCSPQGAILVLGPSDANGLLPAPSVNGSGALGSTGGGGPVGSMENGKPGADVVDLTLDSSSSSEDEEEEEEEEEDEDEEGPRPKRRCPFQKGLVPAC
In the case of B5, the binding entry is recorded as “binds” in assay [8]; “no binding” in assay [9]; “binds” in assay [10]; “binds” in assay [11]; “binds” in [12].

B6: HA-tagged PIASy, in vitro translated (protein, UniProt Q8N2W9 1-510)
chain: B5 chain
Consider B6, for which the binding result in the assay with GST–Slug (human) was “binds”.

B7: Slug 1–268 (full-length), in vitro translated (protein, UniProt O43623 1-268)
chain: T1 sequence
Consider B7, for which, in the assay with GST–Ubc9, the binding result was “binds”.

B8: Slug 33–268, in vitro translated (domain or fragment, UniProt O43623 33-268)
chain: T10 sequence
On to B8, for which the binding result with GST–Ubc9 is given as “binds”.
